Experimental data: the supplement of paper PMC4967469
IC50 is the fitted dose that halves viability relative to control wells, and lower means more sensitive; where the fit passes the top or lowest dose, that dose stands as a limit. For AUC the same curve is integrated over the 256-fold range of doses and scaled to a fraction; it is 1 without any effect and falls as sensitivity rises. For part of these data: An inferred top dose was calculated from the reported fits. For part of these data: Where an entry number is given, a second screen of the drug exists; the two often differ.

Assays:
Experiment in all cases: Viability of human cancer cell lines after 72 h of drug (GDSC screen)
SNX-2112 = compound: CC1(C)CC(=O)c2c(C(F)(F)F)nn(-c3ccc(C(N)=O)c(N[C@H]4CC[C@H](O)CC4)c3)c2C1 [SNX-2112]; details: top dose 2.56 µM
Procedure: (§1)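 Human cancer cell lines in 384-well plates, medium with 10% serum, drug for 72 h over a 256-fold dose range (nine 2-fold or five 4-fold steps up to the top dose). Adherent lines were fixed and stained with the nucleic acid dye Syto60, suspension lines read with resazurin; signal relative to control wells, capped at 0 and 100%. One two-parameter sigmoid per drug and line, fitted in a mixed model over all curves with the slope shared within a line.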

Vinblastine = compound: CC[C@]1(O)C[C@@H]2CN(CCc3c([nH]c4ccccc34)[C@@](C(=O)OC)(c3cc4c(cc3OC)N(C)[C@H]3[C@@](O)(C(=O)OC)[C@H](OC(C)=O)[C@]5(CC)C=CCN6CC[C@]43[C@@H]65)C2)C1 [Vinblastine]; details: top dose 0.1 µM; top dose inferred
Procedure: as §1

Afatinib = compound: CN(C)C/C=C/C(=O)Nc1cc2c(Nc3ccc(F)c(Cl)c3)ncnc2cc1O[C@H]1CCOC1 [Afatinib]
Procedure: as §1

PF-562271 = compound: CN(c1ncccc1CNc1nc(Nc2ccc3c(c2)CC(=O)N3)ncc1C(F)(F)F)S(C)(=O)=O [PF-562271]; details: top dose 2.56 µM; top dose inferred
Procedure: as §1

XMD13-2 = compound: O=C(NC1CC1)c1cccc(-c2ccc3c(NC(=O)C4CC4)n[nH]c3c2)c1 [XMD13-2]; details: top dose 10.24 µM; top dose inferred
Procedure: as §1

[1] = top dose 0.5 µM, screen: GDSC drug entry 1032
[2] = top dose 10 µM, screen: GDSC drug entry 1377, top dose inferred

SW756 (cervix, adherent)
AUC (SNX-2112): 0.928
IC50 (SNX-2112): > 2560 nM
AUC (Vinblastine): 0.636
IC50 (Vinblastine): 16 nM
AUC (Afatinib; [1]): 0.962
IC50 (Afatinib; [1]): > 0.5 µM
AUC (Afatinib; [2]): 0.983
IC50 (Afatinib; [2]): > 10 µM
AUC (PF-562271): 0.972
IC50 (PF-562271): > 2560 nM
AUC (XMD13-2): 0.961
IC50 (XMD13-2): > 10.2 µM

HA7-RCC (kidney, adherent)
AUC (SNX-2112): 0.842
IC50 (SNX-2112): 2080 nM
AUC (Vinblastine): 0.777
IC50 (Vinblastine): 44.3 nM
AUC (Afatinib; [1]): 0.963
IC50 (Afatinib; [1]): > 0.5 µM
AUC (Afatinib; [2]): 0.909
IC50 (Afatinib; [2]): > 10 µM
AUC (PF-562271): 0.971
IC50 (PF-562271): > 2560 nM
AUC (XMD13-2): 0.963
IC50 (XMD13-2): > 10.2 µM

LC4-1 (lymphoblastic leukaemia, suspension)
AUC (SNX-2112): 0.55
IC50 (SNX-2112): 222 nM
AUC (Vinblastine): 0.932
IC50 (Vinblastine): > 100 nM
AUC (Afatinib; [1]): 0.985
IC50 (Afatinib; [1]): > 0.5 µM
AUC (Afatinib; [2]): 0.965
IC50 (Afatinib; [2]): > 10 µM
AUC (PF-562271): 0.94
IC50 (PF-562271): > 2560 nM
AUC (XMD13-2): 0.754
IC50 (XMD13-2): 3.79 µM

NCI-H1395 (lung adenocarcinoma, adherent)
AUC (SNX-2112): 0.86
IC50 (SNX-2112): > 2560 nM
AUC (Vinblastine): 0.469
IC50 (Vinblastine): 5.01 nM
AUC (Afatinib; [1]): 0.976
IC50 (Afatinib; [1]): > 0.5 µM
AUC (Afatinib; [2]): 0.964
IC50 (Afatinib; [2]): > 10 µM
AUC (PF-562271): 0.973
IC50 (PF-562271): > 2560 nM
AUC (XMD13-2): 0.965
IC50 (XMD13-2): > 10.2 µM

ES8 (Ewing sarcoma, adherent)
AUC (SNX-2112): 0.291
IC50 (SNX-2112): 43.5 nM
AUC (Vinblastine): 0.363
IC50 (Vinblastine): 2.7 nM
AUC (Afatinib; [1]): 0.969
IC50 (Afatinib; [1]): > 0.5 µM
AUC (Afatinib; [2]): 0.971
IC50 (Afatinib; [2]): > 10 µM
AUC (PF-562271): 0.85
IC50 (PF-562271): 1720 nM
AUC (XMD13-2): 0.677
IC50 (XMD13-2): 1.91 µM

WM1552C (melanoma, adherent)
AUC (SNX-2112): 0.91
IC50 (SNX-2112): > 2560 nM
AUC (Vinblastine): 0.725
IC50 (Vinblastine): 27.4 nM
AUC (Afatinib; [1]): 0.982
IC50 (Afatinib; [1]): > 0.5 µM
AUC (Afatinib; [2]): 0.97
IC50 (Afatinib; [2]): > 10 µM
AUC (PF-562271): 0.895
IC50 (PF-562271): > 2560 nM
AUC (XMD13-2): 0.922
IC50 (XMD13-2): > 10.2 µM

ARH-77 (myeloma, suspension)
AUC (SNX-2112): 0.28
IC50 (SNX-2112): 39.1 nM
AUC (Vinblastine): 0.827
IC50 (Vinblastine): 58.1 nM
AUC (Afatinib; [1]): 0.987
IC50 (Afatinib; [1]): > 0.5 µM
AUC (Afatinib; [2]): 0.969
IC50 (Afatinib; [2]): > 10 µM
AUC (PF-562271): 0.969
IC50 (PF-562271): > 2560 nM
AUC (XMD13-2): 0.841
IC50 (XMD13-2): 6.73 µM

NAMALWA (Burkitt lymphoma, suspension)
AUC (SNX-2112): 0.194
IC50 (SNX-2112): 24.2 nM
AUC (Vinblastine): 0.49
IC50 (Vinblastine): 5.91 nM
AUC (Afatinib; [1]): 0.991
IC50 (Afatinib; [1]): > 0.5 µM
AUC (Afatinib; [2]): 0.988
IC50 (Afatinib; [2]): > 10 µM
AUC (PF-562271): 0.963
IC50 (PF-562271): > 2560 nM
AUC (XMD13-2): 0.874
IC50 (XMD13-2): 7.32 µM

SBC-1 (small cell lung carcinoma, suspension)
AUC (SNX-2112): 0.725
IC50 (SNX-2112): 677 nM
AUC (Vinblastine): 0.485
IC50 (Vinblastine): 5.71 nM
AUC (Afatinib; [1]): 0.988
IC50 (Afatinib; [1]): > 0.5 µM
AUC (Afatinib; [2]): 0.965
IC50 (Afatinib; [2]): > 10 µM
AUC (PF-562271): 0.988
IC50 (PF-562271): > 2560 nM
AUC (XMD13-2): 0.981
IC50 (XMD13-2): > 10.2 µM

C3A (liver, adherent)
AUC (SNX-2112): 0.538
IC50 (SNX-2112): 204 nM
AUC (Vinblastine): 0.933
IC50 (Vinblastine): > 100 nM
AUC (Afatinib; [1]): 0.98
IC50 (Afatinib; [1]): > 0.5 µM
AUC (Afatinib; [2]): 0.987
IC50 (Afatinib; [2]): > 10 µM
AUC (PF-562271): 0.922
IC50 (PF-562271): > 2560 nM
AUC (XMD13-2): 0.988
IC50 (XMD13-2): > 10.2 µM

PF-382 (T-cell lymphoblastic leukaemia, suspension)
AUC (SNX-2112): 0.253
IC50 (SNX-2112): 35 nM
AUC (Vinblastine): 0.752
IC50 (Vinblastine): 29.5 nM
AUC (Afatinib; [1]): 0.99
IC50 (Afatinib; [1]): > 0.5 µM
AUC (Afatinib; [2]): 0.99
IC50 (Afatinib; [2]): > 10 µM
AUC (PF-562271): 0.915
IC50 (PF-562271): > 2560 nM
AUC (XMD13-2): 0.877
IC50 (XMD13-2): 8.05 µM
